Data as given in the supplement of paper PMC4166925.
± gives the standard deviation of the averaged measurements. In all, about 33,000 sequences were measured (“E-score (dimensionless, -0.5 to 0.5)”: median about -0.046, highest 2% from about 0.36 on). This is one part of the list.

System: T1, SpTbr T-box DNA-binding domain (GST fusion)
T1 sequence: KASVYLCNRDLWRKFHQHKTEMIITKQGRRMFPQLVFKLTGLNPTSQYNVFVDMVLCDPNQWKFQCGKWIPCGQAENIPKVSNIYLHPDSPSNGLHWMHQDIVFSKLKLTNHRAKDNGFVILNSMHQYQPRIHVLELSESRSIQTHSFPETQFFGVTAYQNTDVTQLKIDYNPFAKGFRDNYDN
Assay: PBM E-score of 8-mer (E-score (dimensionless, -0.5 to 0.5)); Tbr is Tbrain of the sea star Patiria miniata (Pm) or the sea urchin Strongylocentrotus purpuratus (Sp); higher = stronger binding preference; most listed sequences are background and not binding sites
Settings: the construct has about 5 more residues each side
Procedure, shortened: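 Each ungapped 8-mer received an enrichment E-score from the Universal PBM Analysis Suite, averaged over duplicate arrays. The proteins were Tbr T-box DNA-binding domains, covering the whole T-box plus about five flanking residues, fused to GST and expressed in BL21 E. coli at 20 °C before glutathione affinity purification. Universal Agilent oligonucleotide arrays were made double-stranded by primer extension and incubated with 200 nM protein in PBS (pH 7.5). The arrays were then scanned and quantified, and every 8-mer was scored from probe intensities.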

Sequence | PBM E-score of 8-mer
ACGGTACG | -0.16 ± 0.068
CCTACATA | -0.114 ± 0.028
GGGTCTGA | -0.2018 ± 0.0014
AGTCGAAA | -0.0713 ± 0.052
AGGTTCTG | -0.179 ± 0.0082
GTGGCATA | -0.0123 ± 0.0012
TAGTTTCA | -0.043 ± 0.051
GTAAATAA | -0.0344 ± 0.025
GACAGTCA | 0.1862 ± 0.0017
AGTAGCTC | -0.318 ± 0.039
ATATGCCG | -0.117 ± 0.028
TACATGAA | -0.0791 ± 0.13
CACCTCGG | 0.402 ± 0.0072
ACTGGACT | -0.0864 ± 0.036
GGAACTCC | -0.209 ± 0.028
AGGACATA | -0.122 ± 0.057
GACATAAA | 0.143 ± 0.057
GTCCTGTA | -0.2 ± 0.034
GTATCCTA | -0.111 ± 0.11
CACAGACG | 0.0964 ± 0.037
CCGGGTGA | 0.0209 ± 0.0016
CTCGGCAG | -0.0429 ± 0.015
AAGTGCGT | 0.203 ± 0.018
AAGCACCT | 0.118 ± 0.085
GCATAAAA | -0.232 ± 0.011

Sequence | PBM E-score of 8-mer
CACCTGCG | 0.425 ± 0.0075
ATATTGGC | 0.12 ± 0.019
ACTCGTGA | 0.305 ± 0.019
CGTCCCGC | 0.187 ± 0.038
AACGTTCG | 0.109 ± 0.011
AAGATAGC | -0.107 ± 0.016
AAGCTTTG | -0.155 ± 0.002
ATGTGAGC | 0.06995 ± 0.00026
TCAGGTCA | -0.146 ± 0.066
GAAAGAGA | -0.0687 ± 0.061
ACCGTCCC | -0.187 ± 0.059
CTTCTAGA | -0.105 ± 0.0086
ATCCGCTG | -0.0684 ± 0.052
AACTTCCG | -0.221 ± 0.037
ACTTTAAT | -0.142 ± 0.052
ATGCAGTA | -0.154 ± 0.056
ACGGAGCG | -0.0434 ± 0.047
AACAGAAT | -0.00744 ± 0.019
GTATTCAA | -0.3149 ± 0.00081
GACCAAAC | -0.124 ± 0.015
TAGTCCGA | -0.0544 ± 0.027
GCTCAGCA | -0.114 ± 0.06
AAGTATTA | -0.102 ± 0.045
ACACCCGC | 0.3794 ± 0.0031
ACCCCTAC | -0.0394 ± 0.064

Sequence | PBM E-score of 8-mer
AATAGGTG | 0.374 ± 0.03
CTTGGACA | -0.0374 ± 0.035
AGCCCTAT | -0.284 ± 0.032
CTTACACC | 0.392 ± 0.025
AAAAACAT | -0.203 ± 0.042
GAAACTTA | -0.0724 ± 0.023
CGTAGAAA | -0.208 ± 0.012
AGTTTTTA | -0.111 ± 0.059
AGGAAGCA | -0.226 ± 0.058
AGATTCAT | -0.178 ± 0.05
CAGTCGCC | -0.0981 ± 0.062
TGAACCCA | -0.186 ± 0.024
CCTGAGGA | -0.0654 ± 0.058
CAAGTGGA | 0.0541 ± 0.045
AAACTTTA | -0.0816 ± 0.066
AGCCGGAT | -0.157 ± 0.0031
AATCTGGT | -0.19833 ± 0.00011
CACAACAA | 0.285 ± 0.028
CGTACTAC | -0.167 ± 0.054
ATAGGCTG | 0.0188 ± 0.056
AGTCAGGG | -0.263 ± 0.069
AGCCTTGC | -0.034 ± 0.043
ACTATGTC | -0.0247 ± 0.07
GCTTCGAC | -0.21 ± 0.021
ACGTAGGG | -0.127 ± 0.051

Sequence | PBM E-score of 8-mer
CGAGCAGC | -0.092 ± 0.072
GAGGATCA | -0.0774 ± 0.03
GTGGTTGA | -0.193 ± 0.0035
AGATGGAA | -0.105 ± 0.024
AATTTAGT | -0.0176 ± 0.054
TGCGGCCA | -0.102 ± 0.054
CCAAATGG | -0.0512 ± 0.02
AAGGCGTA | 0.153 ± 0.028
CGGTTCGC | 0.333 ± 0.02
AGGCTCAG | -0.259 ± 0.064
CCTAGGTA | 0.0144 ± 0.004
GGCGGAAA | -0.0237 ± 0.0049
ATACCCCC | -0.205 ± 0.028
CGGGAAAC | 0.1171 ± 0.00015
ACTCTGAG | -0.0935 ± 0.02
CGGTCGTC | 0.0242 ± 0.042
ACCATGGT | 0.14 ± 0.00095
CCCCTTTA | -0.284 ± 0.049
CCCCCACC | -0.0478 ± 0.029
ATACTCTC | -0.141 ± 0.041
CACGGGAA | 0.0226 ± 0.0042
GAGAACCA | 0.0017 ± 0.11
CCCAGACG | -0.0648 ± 0.012
AGGGCACT | -0.141 ± 0.08
ATCTCTTG | 0.011 ± 0.0073

Sequence | PBM E-score of 8-mer
CTCCCATA | -0.161 ± 0.043
GCTACGCC | 0.0298 ± 0.029
GAGGGAAA | -0.127 ± 0.035
ATTGCAGA | -0.0149 ± 0.092
CCGTAACC | 0.0545 ± 0.016
CACCCTGG | 0.196 ± 0.051
ACAGCCAC | 0.0867 ± 0.049
CCTCATGC | -0.0225 ± 0.055
AAATTCAT | -0.208 ± 0.072
ATCGTCCG | -0.135 ± 0.014
ACTTCATG | -0.0152 ± 0.015
CACCCGTA | 0.154 ± 0.075
AGAGGAGC | -0.0105 ± 0.083
CCGCGAAC | 0.338 ± 0.0083
AACAGTTA | 0.255 ± 0.015
ACGCGCCG | 0.227 ± 0.11
AATCCATG | -0.23 ± 0.041
CGTTTTAG | -0.0242 ± 0.011
GGACCACA | -0.0704 ± 0.071
GCTCAGGA | -0.213 ± 0.031
AAAGTGTT | 0.416 ± 0.035
ACGAAGTA | -0.0771 ± 0.0073
ACTCGGGG | -0.246 ± 0.072
GGACTGTA | -0.226 ± 0.0032
CGGCAAAC | 0.0128 ± 0.0013

Sequence | PBM E-score of 8-mer
ACATCGCT | 0.101 ± 0.02
AGGTTCCA | -0.0895 ± 0.035
AATGCGGT | -0.158 ± 0.016
CCTCCAGA | -0.13 ± 0.058
AGGCAGAT | -0.0669 ± 0.075
GGAGTCCA | -0.136 ± 0.014
TAATTAAA | -0.128 ± 0.06
ATCATTGG | 0.0423 ± 0.055
CATCCCTC | -0.127 ± 0.048
TAAATGCA | -0.238 ± 0.0051
AAGAGAAG | 0.0157 ± 0.045
AGCGTTGC | -0.00298 ± 0.059
AGTCAGAG | -0.377 ± 0.027
TAATCGCA | 0.238 ± 0.044
CAACGGCG | 0.0935 ± 0.02
AGTGTTGC | 0.346 ± 0.0099
ACTCCGCC | -0.12 ± 0.0042
ACTCACCC | 0.184 ± 0.048
TAGAACGA | -0.154 ± 0.0016
AATATGTA | -0.00826 ± 0.042
AGGTTCGC | 0.275 ± 0.014
ACGACAGG | 0.0347 ± 0.08
TGAACGAA | -0.176 ± 0.038
CAAGTGAA | 0.0357 ± 0.021
ATACACCC | 0.0215 ± 0.038

Sequence | PBM E-score of 8-mer
TCGGTGAA | -0.0804 ± 0.055
AAGCTTAC | -0.128 ± 0.056
TAACATGA | 0.0612 ± 0.07
AAAACCTC | -0.21 ± 0.0076
CGCCCTGC | 0.0269 ± 0.028
GAGGGAGA | -0.0059 ± 0.0082
ATTAAGCA | -0.251 ± 0.014
CAGTGCTC | 0.0319 ± 0.0026
CGAGGTTA | 0.0218 ± 0.011
CCTTTTTA | -0.0557 ± 0.078
TGAGGCCA | -0.213 ± 0.046
ACTGTGCA | -0.0113 ± 0.0028
AGCCTACG | -0.0647 ± 0.015
CATTGGAC | -0.0809 ± 0.041
CGTAAATC | 0.0659 ± 0.057
AAGCGTAC | -0.16 ± 0.065
ATAGGATG | 0.012 ± 0.026
AATCTATA | -0.209 ± 0.0095
CGGGGTGA | 0.231 ± 0.024
AGCGAGGC | 0.112 ± 0.037
CACGTACA | 0.268 ± 0.022
AGTCCGCC | -0.104 ± 0.074
